# The supplement of paper PMC8728848
# Some of the results follow.
# Experiments:
# Test in all cases: glycan array binding signal (z-score within array); higher = stronger binding
# Conditions in all cases: glycan notation: IUPAC condensed, linker removed
# [1] = target: Gal(b1-3)GlcNAc(b1-3)Gal(b1-3)GlcNAc
# Method in brief: (§1)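 Columns mapping to the same glycan were averaged after glycan names were converted to IUPAC-condensed notation. The data come from 3228 arrays in the Consortium for Functional Glycomics database, limited to those with an available protein sequence. Binding is reported as a within-array Z-score averaged across arrays of one protein sequence and across linkers.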
# [2] = target: Gal(b1-3)GlcNAc(b1-3)Gal(b1-4)Glc
# Method in brief: as §1
# [3] = target: Gal(b1-3)GlcNAc(b1-3)Gal(b1-4)GlcNAc
# Method in brief: as §1
# [4] = target: Gal(b1-3)GlcNAc(b1-3)Gal(b1-4)GlcNAc(b1-2)Man(a1-3)[Gal(b1-3)GlcNAc(b1-3)Gal(b1-4)GlcNAc(b1-2)Man(a1-6)]Man(b1-4)GlcNAc(b1-4)GlcNAc
# Method in brief: as §1
# [5] = target: Gal(b1-3)GlcNAc(b1-3)Gal(b1-4)GlcNAc(b1-2)[Gal(b1-3)GlcNAc(b1-3)Gal(b1-4)GlcNAc(b1-6)]Man(a1-6)[Gal(b1-3)GlcNAc(b1-3)Gal(b1-4)GlcNAc(b1-2)Man(a1-3)]Man(b1-4)GlcNAc(b1-4)[Fuc(a1-6)]GlcNAc
# Method in brief: as §1
# [6] = target: Gal(b1-3)GlcNAc(b1-3)Gal(b1-4)GlcNAc(b1-3)Gal(b1-4)GlcNAc(b1-2)[Gal(b1-3)GlcNAc(b1-3)Gal(b1-4)GlcNAc(b1-3)Gal(b1-4)GlcNAc(b1-6)]Man(a1-6)[Gal(b1-3)GlcNAc(b1-3)Gal(b1-4)GlcNAc(b1-3)Gal(b1-4)GlcNAc(b1-2)Man(a1-3)]Man(b1-4)GlcNAc(b1-4)[Fuc(a1-6)]GlcNAc
# Method in brief: as §1
# [7] = target: Gal(b1-3)GlcNAc(b1-3)Gal(b1-4)GlcNAc(b1-6)[Gal(b1-3)GlcNAc(b1-3)]Gal(b1-4)Glc
# Method in brief: as §1
# [8] = target: Gal(b1-3)GlcNAc(b1-3)Gal(b1-4)[Fuc(a1-3)]GlcNAc
# Method in brief: as §1
# [9] = target: Gal(b1-3)GlcNAc(b1-3)Gal(b1-4)[Fuc(a1-3)]GlcNAc(b1-6)[Gal(b1-3)GlcNAc(b1-3)]Gal(b1-4)Glc
# Method in brief: as §1
# [10] = target: Gal(b1-3)GlcNAc(b1-3)GalNAc
# Method in brief: as §1
# [11] = target: Gal(b1-3)GlcNAc(b1-6)Gal(b1-4)GlcNAc
# Method in brief: as §1
# [12] = target: Gal(b1-3)GlcNAc(b1-6)GalNAc
# Method in brief: as §1
# [13] = target: Gal(b1-3)GlcNAc(b1-6)[Gal(b1-3)]GalNAc
# Method in brief: as §1
# [14] = target: Gal(b1-3)GlcNAc6S
# Method in brief: as §1
# [15] = target: Gal(b1-3)[Fuc(a1-4)]GlcNAc
# Method in brief: as §1
# [16] = target: Gal(b1-3)[Fuc(a1-4)]GlcNAc(b1-2)Man
# Method in brief: as §1
# [17] = target: Gal(b1-3)[Fuc(a1-4)]GlcNAc(b1-2)Man(a1-3)[Gal(b1-3)[Fuc(a1-4)]GlcNAc(b1-2)Man(a1-6)]Man(b1-4)GlcNAc(b1-4)GlcNAc
# Method in brief: as §1
# [18] = target: Gal(b1-3)[Fuc(a1-4)]GlcNAc(b1-2)Man(a1-3)[Gal(b1-3)[Fuc(a1-4)]GlcNAc(b1-2)Man(a1-6)]Man(b1-4)GlcNAc(b1-4)[Fuc(a1-6)]GlcNAc
# Method in brief: as §1
# [19] = target: Gal(b1-3)[Fuc(a1-4)]GlcNAc(b1-3)Gal(b1-3)[Fuc(a1-4)]GlcNAc
# Method in brief: as §1
# [20] = target: Gal(b1-3)[Fuc(a1-4)]GlcNAc(b1-3)Gal(b1-4)GlcNAc
# Method in brief: as §1
# [21] = target: Gal(b1-3)[Fuc(a1-4)]GlcNAc(b1-3)Gal(b1-4)[Fuc(a1-3)]GlcNAc
# Method in brief: as §1
# [22] = target: Gal(b1-3)[Fuc(a1-4)]GlcNAc(b1-6)GalNAc
# Method in brief: as §1
# [23] = target: Gal(b1-3)[GlcNAc(b1-6)]GalNAc
# Method in brief: as §1
# [24] = target: Gal(b1-3)[Neu5Ac(a2-6)]GalNAc
# Method in brief: as §1
# [25] = target: Gal(b1-3)[Neu5Ac(a2-6)]GlcNAc(b1-4)Gal(b1-4)Glc
# Method in brief: as §1
# [26] = target: Gal(b1-3)[Neu5Ac(a2-6)]GlcNAc(b1-6)Gal(b1-4)Glc
# Method in brief: as §1
# [27] = target: Gal(b1-3)[Neu5Ac(b2-6)]GalNAc
# Method in brief: as §1
# [28] = target: Gal(b1-4)Gal
# Method in brief: as §1
# [29] = target: Gal(b1-4)GalNAc(a1-3)[Fuc(a1-2)]Gal(b1-4)GlcNAc
# Method in brief: as §1
# [30] = target: Gal(b1-4)GalNAc(b1-3)[Fuc(a1-2)]Gal(b1-4)GlcNAc
# Method in brief: as §1
# [31] = target: Gal(b1-4)Glc
# Method in brief: as §1
# [32] = target: Gal(b1-4)Glc6S
# Method in brief: as §1
# [33] = target: Gal(b1-4)GlcNAc
# Method in brief: as §1
# [34] = target: Gal(b1-4)GlcNAc(a1-6)Gal(b1-4)GlcNAc
# Method in brief: as §1
# [35] = target: Gal(b1-4)GlcNAc(b1-2)Man
# Method in brief: as §1
# [36] = target: Gal(b1-4)GlcNAc(b1-2)Man(a1-3)Man(b1-4)GlcNAc(b1-4)GlcNAc
# Method in brief: as §1
# [37] = target: Gal(b1-4)GlcNAc(b1-2)Man(a1-3)[Gal(b1-4)GlcNAc(b1-2)Man(a1-6)]Man(b1-4)GlcNAc(b1-4)GlcNAc
# Method in brief: as §1
# [38] = target: Gal(b1-4)GlcNAc(b1-2)Man(a1-3)[Gal(b1-4)GlcNAc(b1-2)Man(a1-6)]Man(b1-4)GlcNAc(b1-4)[Fuc(a1-6)]GlcNAc
# Method in brief: as §1
# [39] = target: Gal(b1-4)GlcNAc(b1-2)Man(a1-3)[Gal(b1-4)GlcNAc(b1-2)Man(a1-6)][Gal(b1-4)GlcNAc(b1-4)]Man(b1-4)GlcNAc(b1-4)[Fuc(a1-6)]GlcNAc
# Method in brief: as §1
# [40] = target: Gal(b1-4)GlcNAc(b1-2)Man(a1-3)[Gal(b1-4)GlcNAc(b1-2)Man(a1-6)][GlcNAc(b1-4)]Man(b1-4)GlcNAc(b1-4)[Fuc(a1-6)]GlcNAc
# Method in brief: as §1
# [41] = target: Gal(b1-4)GlcNAc(b1-2)Man(a1-3)[GlcNAc(b1-2)Man(a1-6)]Man(b1-4)GlcNAc(b1-4)GlcNAc
# Method in brief: as §1
# [42] = target: Gal(b1-4)GlcNAc(b1-2)Man(a1-3)[GlcNAc(b1-4)][Gal(b1-4)GlcNAc(b1-2)Man(a1-6)]Man(b1-4)GlcNAc(b1-4)GlcNAc
# Method in brief: as §1
# [43] = target: Gal(b1-4)GlcNAc(b1-2)Man(a1-3)[Man(a1-6)]Man(b1-4)GlcNAc(b1-4)GlcNAc
# Method in brief: as §1
# [44] = target: Gal(b1-4)GlcNAc(b1-2)Man(a1-6)Man(b1-4)GlcNAc(b1-4)GlcNAc
# Method in brief: as §1
# [45] = target: Gal(b1-4)GlcNAc(b1-2)Man(a1-6)[GlcNAc(b1-2)Man(a1-3)]Man(b1-4)GlcNAc(b1-4)GlcNAc
# Method in brief: as §1
binder,measurement,setting,value
"HPA (Helix pomatia), Q2F1K8 (protein) MQAFYSGLLLLCVVAFAAAQRVQSGKIDCGNDAGWAKVPSDDPGRDNTRELAKNITFASPYCRPPVVLLSITQLDVEQSQNLRVIARLYSVSPTGFKASCYTWHNTKVYSMSISWISIENY",glycan array binding signal (z-score),[1],-0.292
same,glycan array binding signal (z-score),[2],-0.217
same,glycan array binding signal (z-score),[3],-0.227
same,glycan array binding signal (z-score),[4],-0.021
same,glycan array binding signal (z-score),[5],-0.013
same,glycan array binding signal (z-score),[6],0.092
same,glycan array binding signal (z-score),[7],-0.34
same,glycan array binding signal (z-score),[8],-0.245
same,glycan array binding signal (z-score),[9],-0.222
same,glycan array binding signal (z-score),[10],-0.051
same,glycan array binding signal (z-score),[11],-0.303
same,glycan array binding signal (z-score),[12],-0.329
same,glycan array binding signal (z-score),[13],-0.205
same,glycan array binding signal (z-score),[14],-0.491
same,glycan array binding signal (z-score),[15],-0.071
same,glycan array binding signal (z-score),[16],-0.063
same,glycan array binding signal (z-score),[17],2.87
same,glycan array binding signal (z-score),[18],0.187
same,glycan array binding signal (z-score),[19],0.312
same,glycan array binding signal (z-score),[20],-0.281
same,glycan array binding signal (z-score),[21],-0.178
same,glycan array binding signal (z-score),[22],0.042
same,glycan array binding signal (z-score),[23],-0.136
same,glycan array binding signal (z-score),[24],-0.168
same,glycan array binding signal (z-score),[25],-0.283
same,glycan array binding signal (z-score),[26],-0.38
same,glycan array binding signal (z-score),[27],-0.122
same,glycan array binding signal (z-score),[28],-0.293
same,glycan array binding signal (z-score),[29],-0.24
same,glycan array binding signal (z-score),[30],-0.052
same,glycan array binding signal (z-score),[31],-0.081
same,glycan array binding signal (z-score),[32],-0.161
same,glycan array binding signal (z-score),[33],-0.173
same,glycan array binding signal (z-score),[34],-0.184
same,glycan array binding signal (z-score),[35],-0.271
same,glycan array binding signal (z-score),[36],-0.229
same,glycan array binding signal (z-score),[37],-0.207
same,glycan array binding signal (z-score),[38],-0.228
same,glycan array binding signal (z-score),[39],-0.288
same,glycan array binding signal (z-score),[40],-0.272
same,glycan array binding signal (z-score),[41],-0.182
same,glycan array binding signal (z-score),[42],-0.311
same,glycan array binding signal (z-score),[43],-0.283
same,glycan array binding signal (z-score),[44],-0.244
same,glycan array binding signal (z-score),[45],-0.313
